“And” between values parts separate entries of the source, which are not always exact repeats. Equal values may be shown once. The shares of active, inactive and inconclusive entries below differ from those in the screen. Potencies of inconclusive entries are doubtful fits and often do not repeat. Some structures have more than one record in an assay (separate samples or runs), and their calls can disagree. The source made the active and inactive calls. The call rests on the fitted dose curve; in most records, active means well fitted cell-killing curve with a large enough effect in the repeat runs; inconclusive means weak or mixed curves, or effect the other way; inactive means flat fitted curve, though single readings scatter.
Experiment: qHTS assay to identify small molecule agonists of the sonic hedgehog signaling (Shh) pathway - cell viability counter screen (AID 1259366); further: nearly all actives have a fitted effect of over 50% in size
Conditions: NIH/3T3 Gli1-Luc viability, CellTiter-Fluor, 24 h; series mostly up to 92.4 µM; viability change, negative = cytotoxic: at the top concentration
Source text: National Center for Advancing Translational Sciences [NCATS]
NIH Chemical Genomics Center [NCGC]
U.S. Environmental Protection Agency [EPA]
National Institutes of Environmental Health Sciences [NIEHS]
National Toxicology Program [NTP]
U.S. Food and Drug Administration [FDA]
The sonic hedgehog (Shh) pathway is essential for normal embryonic development. Dysregulation of the Shh pathway can cause severe developmental defects in organs. Therefore chemicals that interfere with the pathway are potential developmental toxicants. A cell line designated 3T3Gli1-Luc (DMB/OARSA/CFSAN/FDA, Laurel, MD), a NIH/3T3 derived clone containing stably integrated Gli1-Luc reporter is used to detect chemical interference of the Shh pathway, by changes in the expression of the firefly Luc gene under the control of the Gli1 transcriptional response element. This cell line was used to screen Tox21 libraries for identifying and prioritizing the potential developmental toxicants that interfere Shh pathway. The cytotoxicity of the compounds was tested in parallel by measuring the cell viability using CellTiter-Fluor assay system (Promega, Madison, WI) in the same wells.
Tox21 Assay Protocol Summary:
3T3 Gli1-Luc cells were dispensed at 2,000 per well in 5uL of culture medium into white solid bottom 1536-well plates (Greiner Bio-One, Monroe, NC) using a Multidrop Combi (Thermo Scientific, Waltham, MA) dispenser. The assay plates were incubated at 37 C and 5% CO2 for 4hr, and then 23nL of compounds dissolved in DMSO and positive control were transferred using a Pintool station (Wako, San Diego, CA). The assay plates were incubated at 37C and 5% CO2 for 24hr. For viability read, after 23hr of compound treatment, 1uL of CellTiter-Fluor reagent (Promega Corporation, Madison, WI) was added to each well of the assay plates using Flying Reagent Dispenser (FRD, Aurora Discovery, San Diego, CA) and incubated the assay plates at 37C for 1hr. The fluorescence signal was quantified using a ViewLux plate reader (Perkin Elmer, Shelton, CT).
In the case of `COc1cccc2c1C(=O)c1c(O)c3c(c(O)c1C2=O)C[C@@](O)(C(=O)CO)CC3OC1CC(N2CCOC(OC)C2)C(O)C(C)O1` (stereo not given in full), the Potency is reported as active: 0.237 µM.
In the case of `Cc1ccc(N)cc1N`, the Potency is reported as inconclusive: 12.2 µM [rising, full curve, poor fit].
With `C=CCc1ccc2c(c1)OCO2` the Potency was inconclusive: 0.547 µM [rising, single point].
With `c1ccc(N=NNc2ccccc2)cc1` the Potency was inconclusive: 63.3 µM [cytotoxic].
For `Nc1ccc(Cl)cc1`, the Potency was inconclusive: 69.8 µM [cytotoxic, single point].
For `CCCCOCC1CO1` (stereo not given), the Potency was “inactive”.
With `N#Cc1cc(I)c(O)c(I)c1` the Potency was inconclusive: 27.3 µM [rising, single point].
In the case of `O=[N+]([O-])c1cc(C(F)(F)F)cc([N+](=O)[O-])c1Cl`, the Potency is reported as active: 30.8 µM.
In the case of `CCCCCCCCCBr`, the Potency is reported as inconclusive: 77.7 µM [cytotoxic, partial curve, poor fit].
For `CCOP(=S)(OCC)SCn1c(=O)oc2cc(Cl)ccc21`, the Potency was inconclusive: 26.1 µM [rising, partial curve, poor fit].
For `CC(Cl)(Cl)C(=O)O`, the Potency was inconclusive: 61.3 µM [rising, partial curve].
With `Cc1cccc(N=Nc2ccc(N(C)C)cc2)c1` the Potency was inconclusive: 19.3 µM [cytotoxic, full curve].
With `COC(=O)N(OC)c1ccccc1COc1ccn(-c2ccc(Cl)cc2)n1` the “viability change, negative = cytotoxic” value was inactive: -13.4%.
For `O=C(CCl)c1ccccc1`, the Potency was inconclusive: 68.6 µM [cytotoxic, single point].
In the case of `[Cl-].[Cl-].[Sn+2]`, the “viability change, negative = cytotoxic” value is reported as inactive: 20.4%.
For `C=CC(=O)OC`, the “viability change, negative = cytotoxic” value was inactive: -5.46%.
For `O=c1[nH]c2cc(Cl)ccc2n1C1CCNCC1`, the Potency was inconclusive: 29.8 µM [cytotoxic, partial curve, poor fit].
With `CCC(C)(NC(=O)c1cc(Cl)c(C)c(Cl)c1)C(=O)CCl` (stereo not given) the Potency was active: 43.5 µM.
For `CC(Oc1ccc(Cl)cc1Cl)C(=O)O` (stereo not given), the Potency was inconclusive: 0.972 µM [rising, partial curve].
In the case of `CC(=O)[O-].CC(=O)[O-].[Co+2]`, the Potency is reported as inconclusive: 38.6 µM [rising, partial curve, poor fit].
For `Cc1ccc(N=CN(C)C=Nc2ccc(C)cc2C)c(C)c1`, the Potency was inconclusive: 68.9 µM [cytotoxic, single point] and inconclusive: 76.9 µM [cytotoxic, partial curve, poor fit].
In the case of `Nc1ccc(Br)cc1`, the Potency is reported as inconclusive: 68.5 µM [cytotoxic, single point].
With `O=[N+]([O-])c1c2ccccc2cc2ccccc12` the Potency was inconclusive: 67.8 µM [cytotoxic].
For `CC(C)(C)C(O)C(Oc1ccc(Cl)cc1)n1cncn1` (stereo not given), the “viability change, negative = cytotoxic” value was inactive: -4.84%.
For `CCC(=O)C(CC(C)N(C)C)(c1ccccc1)c1ccccc1` (stereo not given), the Potency was inconclusive: 5.47 µM [cytotoxic, full curve] and inconclusive: 9.62 µM [cytotoxic, full curve] and inconclusive: 16.5 µM [cytotoxic, partial curve].
In the case of `COc1ccc2c3c1O[C@H]1[C@@H](O)C=C[C@H]4[C@@H](C2)N(C)CC[C@@]341`, the Potency is reported as active: 21.3 µM and inactive.
For `N#CC(CCc1ccc(Cl)cc1)(Cn1cncn1)c1ccccc1` (stereo not given), the Potency was active: 48.6 µM.
With `c1ccc2c(c1)OCC(C1=NCCN1)O2` (stereo not given) the Potency was inconclusive: 5.96 µM [cytotoxic, full curve].
In the case of `Nc1ccc(-c2ccccc2)cc1`, the Potency is reported as inconclusive: 25 µM [cytotoxic, partial curve, poor fit].
In the case of `CC1(c2ccc(Oc3ccccc3)cc2)OC(=O)N(Nc2ccccc2)C1=O` (stereo not given), the Potency is reported as inconclusive: 69 µM [cytotoxic, single point].
In the case of `Oc1ccc(Cl)c(Cl)c1Cl`, the “viability change, negative = cytotoxic” value is reported as inactive: -3.46%.
With `CN(C)c1ccc(N(C)C)cc1` the Potency was active: 24.4 µM.
With `COCCOCCO` the Potency was inconclusive: 68.6 µM [cytotoxic].
For `COc1ccc2c(c1OC)C(=O)O[C@@H]2[C@H]1c2cc3c(cc2CCN1C)OCO3`, the Potency was active: 2.41 µM.
With `CCCCn1cc[n+](C)c1` the Potency was “inactive”.
With `CC(C)(C)C(O)/C(=C\c1ccc(Cl)cc1Cl)n1cncn1` (stereo not given) the Potency was inconclusive: 58.7 µM [cytotoxic, partial curve].
With `Cc1ccc(N)c(C)c1` the Potency was “inactive”.
For `O=C1NCN(c2ccccc2)C12CCN(CC1COc3ccccc3O1)CC2` (stereo not given), the Potency was inconclusive: 23.7 µM [cytotoxic, partial curve].
In the case of `C=CCOC(Cn1ccnc1)c1ccc(Cl)cc1Cl` (stereo not given), the Potency is reported as inconclusive: 77.2 µM [cytotoxic, partial curve, poor fit].
For `CC1CC(CC2CCC(N)C(C)C2)CCC1N` (stereo not given), the Potency was inconclusive: 39.2 µM [cytotoxic, partial curve].
On the % scale 0 is the no-effect control and ±100 the full control effect; potency means the concentration at half of the fitted maximal effect; tags describe the fitted curve by direction and shape.
